The campaign covered roughly 150,000 compounds. About 180 (0.12%) were called active. Inconclusive means that the source gave no clear call. Such entries were picked first, then a sample of the others. The call rests on the fitted dose curve; in most records, active means well fitted cell-killing curve with a large enough effect; inconclusive means small, poorly fitted or top-dose-only effect, or effect the other way; inactive means flat fitted curve, though single readings scatter. A potency beside an inconclusive call is a rough fit, not a confirmed value.
Assay: GF-AFC viability counterscreen for inhibitors of alpha-synuclein gene (SNCA) expression; further: nearly all actives have a fitted effect of over 30% in size;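 on activity change, negative = cytotoxicity: 0% = DMSO-treated cells and -100% = medium-only wells without cells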
Conditions: HEK-293-SNCA-luc viability, GF-AFC fluorescence, 24 h; activity change, negative = cytotoxicity: at 57.1 µM (top of the series) unless noted
Summary of the method: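 Cytotoxicity counterscreen: after 24 h compound treatment of genome-edited SNCA-luciferase HEK-293 cells, live-cell protease substrate GF-AFC read by fluorescence after 30 min; activity scaled between DMSO (0%) and medium-only (-100%), curves Hill-fitted.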
Potency means the concentration at half of the fitted maximal effect; tags describe the fitted curve by direction and shape.

SMILES | activity change, negative = cytotoxicity | Potency
CCC1Oc2ccc(NC(=O)C3CCCC3)cc2CN(Cc2ccccc2Cl)C1=O (configuration not stated) | inactive: 0.416% | –
Cc1ccc2oc(CN3CCCn4nc(C(O)CN(C)C)cc4C3)c(C)c2c1 (configuration not stated) | inactive: 2.89% | –
Cc1cnc(CNc2nc(-c3ccccc3C(F)(F)F)nc3ccccc23)cn1 | inconclusive: 24.2% | –
CCN(CC)C(=O)c1sc(NC(=O)c2nc3ncccn3n2)c(C(=O)OC)c1C | – | inconclusive: 14.1 µM [rising, partial curve]
O=c1c2c(n(Cc3cccnc3)n1-c1ccccc1)CN(Cc1ccccc1Cl)CC2 | – | inconclusive: 3.16 µM [cytotoxic, full curve, poor fit]
COc1ccccc1-c1nc2nccc(-c3ccc(Cl)cc3)n2n1 | inactive: -11.3% | –
O=S(=O)(NCc1cccc2ccccc12)c1cc(Cl)c(Oc2cccc(N3CCNCC3)c2)s1 | – | inconclusive: 37.7 µM [cytotoxic, single point]
COc1ccc(-c2cnc(Nc3cccc(N[S+](C)(=O)[O-])c3)c3c2CCO3)cn1 | inactive: -5.84% [at 87.6 µM] | –
CN1CCc2c([nH]c3ccccc23)C12CCN(C(=O)c1cccs1)CC2 | inactive: 10.8% [at 12.5 µM] | –
Cn1c(=O)c(-c2cccc(C#N)c2)nc2cnc(Oc3ccccc3)nc21 | – | inconclusive: 39.8 µM [cytotoxic, single point]
O=C(NC1CCN(c2nccc(Nc3ccccc3F)n2)CC1)c1ccccc1F | inactive: -10.6% [at 12.5 µM] | –
CCSc1ncc(CN2CC[C@@H](NC(=O)c3cnccn3)[C@H](O)C2)cn1 | – | inconclusive: 39.8 µM [cytotoxic, partial curve, poor fit]
Cc1cc(CN(C)C(=O)c2csc3nc(-c4cccc(C(F)(F)F)c4)cn23)on1 | inactive: 1.35% | –
COc1cccc(CCNC(=O)c2c(C)noc2-c2ccc(OC(F)(F)F)cc2)c1 | – | inconclusive: 3.16 µM [cytotoxic, single point]
Cc1ccc(Cl)cc1-n1c(=O)c2sc3ccccc3c2n(CC(=O)NC2CCCCC2)c1=O | – | inconclusive: 1 µM [cytotoxic, full curve]
O=C(Nc1ccc(C(F)(F)F)cc1)c1cc(S(=O)(=O)NC2CCCCC2)ccc1F | – | inconclusive: 39.8 µM [cytotoxic, single point]
COc1ccc(-n2nc(C)c([C@@H]3C=C[C@@H](NC(=O)NCc4ccccc4)C3)c2C)cc1 | – | inconclusive: 35.5 µM [cytotoxic, single point]
COC[C@@H]1CN(Cc2ccc(F)c(F)c2)C[C@H]1C(=O)NC1CC1 | – | inconclusive: 11.2 µM [cytotoxic, partial curve, poor fit]
O=c1[nH]c(C2CCN(Cc3ccc(-c4cccnc4)cc3)CC2)nc2ccc(F)cc12 | – | inactive
O=c1c(-c2ccc(Cl)cc2)nc2cnc(N3CCNCC3)nc2n1CCc1ccccc1 | – | inconclusive: 22.4 µM [rising, partial curve, poor fit]
O=C(Nc1ccc2cn[nH]c2c1)c1ccc2c(c1)OCCN(c1ccccc1)C2 | – | inconclusive: 56.2 µM [cytotoxic, single point]
CCOc1ccc(CCNC(=O)c2nc(-c3cccc(F)c3)n3c2CCCCC3)cc1OCC | – | inconclusive: 35.5 µM [cytotoxic, single point]
COc1cccc(C(=O)N2CCC(N3C[C@H](O)C[C@H]3C(=O)NCc3ccc(F)cc3)CC2)c1 | inactive: 2.22% | –

SMILES | activity change, negative = cytotoxicity | Potency
COc1ccc(-c2nc3cc(C)ccn3c2NC(=O)c2ccc(F)cc2)cc1 | – | inconclusive: 4.47 µM [cytotoxic, partial curve, poor fit]
Cc1ccc(NC(=O)N[C@H]2C[C@@H](c3nc(-c4ccc(F)cc4)no3)N(C)C2)cc1 | inactive: 2.41% [at 87.6 µM] | –
CN(C)CC1CCn2c(c(C3=C(c4cn(C)c5ccccc45)C(=O)NC3=O)c3ccccc32)C1 (configuration not stated) | – | inconclusive: 21.2 µM [cytotoxic, single point]
Cc1cccc(OCCc2noc(C3CCCN(C(=O)c4ccoc4)C3)n2)c1 (configuration not stated) | inactive: 3% | –
CC(CNC(=O)CN1C(=O)COc2ccc(S(=O)(=O)N3CCCCCC3)cc21)c1ccccc1 (configuration not stated) | – | inconclusive: 39.8 µM [cytotoxic, single point]
COc1ccc(Cl)cc1C(=O)N1CCCN(c2cc(-c3ccc(Br)cc3)[nH]n2)CC1 | inactive: -15.8% | –
COc1ccc(C(=O)N2CCC3(CC2)OC(=O)N(Cc2ccccc2F)C3(C)c2ccccc2)cc1 (configuration not stated) | inactive: -9.46% | –
COc1ccc(C(=O)Nc2cccc(-c3nnc4n3CCCC4)c2)c(C)c1 | – | inconclusive: 3.55 µM [cytotoxic, single point]
Cc1ccc(C(=O)N(Cc2ccco2)Cc2ccco2)cc1 | inactive: 7.39% | –
CCOc1ccccc1CNC(=O)c1cc(NC(C)=O)cc2nc(C)ccc12 | inactive: -0.234% | –
CCOC(=O)N1CCC(Nc2ncncn2)CC1 | inactive: -3.95% | –
Cc1cc(CN(C)C(=O)c2cc(COc3cncc(Cl)c3)on2)on1 | inactive: -0.583% | –
Cc1nc(CN2C(=O)OC3(CCN(Cc4ccc(C(C)C)cc4)CC3)C2(C)c2ccccc2)cs1 (configuration not stated) | inactive: -19.8% | –
CCNc1ncc2nc(-c3ccc(F)cc3)c(=O)n(CCOC)c2n1 | – | inconclusive: 35.5 µM [rising, single point]
Cc1ccc(CN2CCc3nc(C(=O)Nc4ccccc4)oc3CC2)cc1 | inactive: -10.7% [at 87.6 µM] | –
Cc1ccc(-c2ncc(C(=O)O)c(-c3ccncc3)n2)cc1 | – | inconclusive: 12.6 µM [rising, partial curve, poor fit]
Cn1nccc1CN1CCCC2(COc3ccccc3C(=O)N2)C1 (configuration not stated) | – | inconclusive: 56.2 µM [cytotoxic, single point]
Cc1ccccc1N1CCN(C(=O)c2nnn3c2COC(c2ccc(Cl)cc2)C3)CC1 (configuration not stated) | inactive: 4.65% | –
O=c1c(-c2ccccc2)nc2cnc(N3CCOCC3)nc2n1CCc1ccccc1 | – | inconclusive: 3.16 µM [rising, single point]
CCN(CC)S(=O)(=O)c1ccc2c(c1)N(CC(=O)N1CCN(c3ccc(OC)cc3)CC1)C(=O)CO2 | – | inconclusive: 7.94 µM [cytotoxic, partial curve, poor fit]
O=C(Nc1cccc(C(F)(F)F)c1)N[C@H]1CO[C@H]2[C@@H]1OC[C@@H]2Nc1nccc(-c2ccc(-c3ccccc3)cc2)n1 | – | inconclusive: 25.1 µM [cytotoxic, partial curve, poor fit]
CN(Cc1ccc2nonc2c1)Cc1ccccc1OCC(O)CN1CCCCC1 (configuration not stated) | – | inconclusive: 10 µM [cytotoxic, partial curve, poor fit]
O=C(NCc1cccc(Cl)c1)C1CN(c2ccc(F)cc2)C(=O)N1 (configuration not stated) | inactive: 12.2% | –

SMILES | activity change, negative = cytotoxicity | Potency
CCn1c2ccccc2c2cc(CN3CCN(Cc4cc(OC)c(O)c(OC)c4)CC3)ccc21 | – | inconclusive: 22.4 µM [cytotoxic, single point]
NC(=NCCCCCCN=C(N)/N=C(\N)Nc1ccc(Cl)cc1)/N=C(\N)Nc1ccc(Cl)cc1 | – | inconclusive: 37.7 µM [cytotoxic, single point]
CCCCN1CCOc2ccc(C(=O)NCc3ccccc3F)cc2C1 | – | inconclusive: 39.8 µM [cytotoxic, single point]
CNC(=O)CCn1ncc2cc(OC3CCc4cccc(-c5ccc(OC)cc5)c43)ccc21 (configuration not stated) | – | inconclusive: 50.1 µM [cytotoxic, partial curve, poor fit]
Cc1cccc(OCC(=O)NCCn2ccn3nc(-c4ccc(C)c(C)c4)cc3c2=O)c1 | inactive: -6.51% | –
CN(Cc1ccc(N2CCCCC2)cc1)C(=O)CCC[C@H]1NC[C@@H]2C[C@H]1CN(Cc1ccccc1)C2 | – | active: 22.4 µM
O=C(CN1Cc2nc(-c3cc4ccccc4o3)ccc2OCC1=O)N1CCCC1 | inactive: -2.16% [at 87.6 µM] | –
Cc1ccc(S(=O)(=O)c2cn(CC(=O)Nc3cccc(Cl)c3)c3ccccc3c2=O)cc1 | – | inconclusive: 7.94 µM [rising, single point]
O=c1cc(-c2ccccn2)oc2c(NC3CCOCC3)nccc12 | inactive: -1.07% [at 87.6 µM] | –
Cc1cccc(OCC(=O)N2CCC[C@H]2c2nc(-c3ccc(F)cc3)n[nH]2)c1 | – | inconclusive: 22.4 µM [cytotoxic, single point]
CCN1c2cc(C(=O)NCc3cc(OC)ccc3OC)ccc2C(=O)N2CCCCC21 (configuration not stated) | – | inconclusive: 4.47 µM [rising, single point]
CC(C)(C)CC(=O)N1CCCC(C(=O)Nc2cccc(-c3ccc(F)cc3)c2)C1 (configuration not stated) | inactive: 4.97% | –
Cc1ccc(C(=O)N2CCCCC2)cc1NC(=O)c1nsc2ccccc12 | – | inconclusive: 39.8 µM [cytotoxic, partial curve, poor fit]
Cc1c(CCNC(=O)c2ccc(Br)o2)sc2nc(-c3ccc(Cl)cc3)nn12 | – | inconclusive: 28.2 µM [cytotoxic, single point]
COc1ccc(C(CNC(=O)c2ccc(F)cc2)N2CCCC2)cc1 (configuration not stated) | inactive: 4.14% | –
O=c1cnc2cnc(Oc3cccc(Cl)c3)nc2n1CCc1ccccc1 | – | inconclusive: 3.55 µM [cytotoxic, partial curve, poor fit]
O=C(C1CN(c2ccc(F)cc2)C(=O)N1)N1CCN(Cc2ccccc2)CC1 (configuration not stated) | inactive: -16.2% | –
COCCn1c(=O)c2c(n1Cc1ccccc1)CN(Cc1cncc(OC)c1)CC2 | inactive: -6.95% [at 87.6 µM] | –
COc1cc(/C=C(\C#N)c2nc3ccccc3[nH]2)ccc1OCc1ccccc1F | – | inconclusive: 2.24 µM [rising, single point]
CC(C)CN1CCc2nc(Nc3ccc(F)cc3F)ncc2C1 | – | inconclusive: 3.55 µM [cytotoxic, single point]
COc1ccc(-c2cnc(C)o2)cc1S(=O)(=O)Nc1ccc(C)c(F)c1 | – | inconclusive: 12.6 µM [cytotoxic, partial curve, poor fit]

Source: PubChem BioAssay AID1671193 (National Center for Advancing Translational Sciences (NCATS), 2021)
